Some of the results follow.
Each molecule was assayed on T1, C. trachomatis L2/434/Bu expressing GFP (CTL2-GFP). Settings: total inclusion area; 28.5 h, 10 µM; inhibitor.
T1 construct: L2/434/Bu GFP intracellular growth in HeLa cells
Parameters: species or system HeLa; C. trachomatis total inclusion area by high-content imaging, normalised to DMSO
How it was run: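 Host cell viability was gauged from Hoechst-stained nuclei counts, while chlamydial growth was taken from total inclusion area and inclusion number per well. Cells were fixed and imaged by high-content microscopy once bulk GFP and resorufin fluorescence had been measured.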

SMILES | % of control remaining
O=C(COc1ccc2ccccc2c1)N1CCN(S(=O)(=O)c2ccccc2[N+](=O)[O-])CC1 [CBK264271] | 113.295
COc1ccccc1CCCN1CCC2(C1)NCCc1c2[nH]c2ccccc12 (stereo not shown) [CBK040257] | 129.166
CCCOc1ccc(C(=O)N2CCN(c3ccccc3)CC2)cc1 [CBK304327] | 69.6443
COc1ccc2[nH]c3c(c2c1)CCN[C@]31CCN(CCOc2ccc(F)cc2)C1 [CBK089876T] | 43.8304
COc1cc(CN2CCC(C(=O)c3ccc(F)cc3)CC2)cc(OC)c1OC [CBK149112] | 89.02
CN1CCN(CCC(=O)N2CCN(C(=O)c3ccco3)CC2)CC1 [CBK144481] | 86.6236
O=C1N=C(NC2CCCCCC2)SC1CC(=O)N(Cc1ccccc1)c1ccccc1 (stereo not shown) [CBK067394] | 59.0859
O=C1c2ccc3c4c(ccc(c24)C(=O)N1c1ccncc1)C(=O)N(c1ccncc1)C3=O [CBK261390] | 60.6101
Cc1noc(C)c1NC(=O)c1nc2ccccc2[nH]1 [CBK200315] | 111.527
Cn1ccnc1CN1C(=O)CO[C@H]2CN(Cc3ccc4c(c3)OCO4)C[C@H]21 [CBK289665] | 125.694
NC(=O)CSc1ccccc1 [CBK010649] | 57.9963
COc1ccc(CCNC(=O)CSc2nc(N)c3c4c(sc3n2)CCCC4)cc1 [CBK095784] | 73.0226
CCN(c1ccccc1)S(=O)(=O)c1ccc(C(=O)NC(C)c2ccc3c(c2)OCCO3)cc1 (stereo not shown) [CBK296945] | 91.1256
O=C(Cc1ccccc1)N1C[C@@H]2CCCCN(CC3CC3)[C@@H]2C1 [CBK285497] | 104.615
COc1ccccc1-c1coc2cc(OC(=O)c3c(C)oc4ccc(OC(C)=O)cc34)ccc2c1=O [CBK265191] | 98.1289
COc1cccc(CNc2nccnc2-c2ccoc2)c1OC [CBK036782] | 152.376
CCCS(=O)(=O)NC1CC(C)(C)Cc2c1cnn2-c1ccc(F)cc1 (stereo not shown) [CBK306770] | 74.0168
O=C(O)CCc1nn2c3ccccc3nc2n(-c2ccccc2)c1=O [CBK267520] | 109.974
O=C(CC1CC1)Nc1snnc1-c1ccc(Cl)cc1 [CBK153239] | 93.3256
O=C(NCc1ccc(Cl)c(Cl)c1)N1CCN(Cc2ccccc2)CC1 [CBK155624] | 85.2378
CC(C)NC(=O)c1ccc(Cl)cc1 [CBK015665] | 57.8628
COc1ccc(-c2cc(C(=O)Nc3ccc(O)cc3)cnc2-c2ccc(F)cc2)cc1 [CBK038026] | 99.9106
Cc1ccc(Cc2cnc(NC(=O)C3CCCO3)s2)cc1Cl (stereo not shown) [CBK305013] | 119.549
Cc1ccc(CN2CCCC3(C/C=C/COc4ccccc4C(=O)NCCNC3=O)C2)cn1 (stereo not shown) [CBK292022] | 113.55
CS(=O)(=O)c1ccc(-c2ccc(COC3CCN(C(=O)CCCc4ccc(F)cc4)CC3)cn2)cc1 [CBK162229T] | 102.367
COc1ccc(C(NC(=O)c2cc(C)oc2CN2CCCC2)c2ccccc2)cc1 (stereo not shown) [CBK285573] | 76.423
c1ccc(CNc2nc(-c3ccco3)cn3ccnc23)nc1 [CBK037482] | 66.6169

SMILES | % of control remaining
C=C(C)Cn1c(SC(C)C)nnc1-c1ccccc1OC [CBK200072] | 90.1172
COc1ccc(-c2cc(C(=O)OCc3ccccn3)c3ccccc3n2)cc1 [CBK296114] | 98.3014
CN(Cc1ccccc1)c1nc2ccccn2c(=O)c1/C=C1/SC(=S)N(CCc2ccccc2)C1=O [CBK263839] | 81.5561
O=S(=O)(c1cccc(C(F)(F)F)c1)n1ccc2c(CN3CCCC3)cccc21 [CBK116168T] | 78.0632
CN(C)c1ncc(-c2ccc(F)cc2)c(C2CCCN2C(=O)c2nccc3ccccc23)n1 (stereo not shown) [CBK286086] | 116.912
CC(=O)NC(c1ccccn1)C1CCN(C(=O)C2CCCCC2)CC1 (stereo not shown) [CBK285049] | 112.685
Cc1cc2nc(NCC3CCCO3)c3ccccc3n2n1 (stereo not shown) [CBK305871] | 57.1731
CCC(C)(C)N1CC(=O)N=C1NCCc1ccc(S(N)(=O)=O)cc1 [CBK007750] | 63.7257
CC(C)(C)C(=O)N1CC[C@H]2NC(=O)N(c3ccc(F)cc3)C(=O)[C@H]21 [CBK289328] | 116.463
Cc1ccccc1CCNC(=O)c1cccn(CC(=O)N(C)C2CCCCC2)c1=O [CBK286028] | 119.643
Cc1cc2c(o1)c1cnn(CC(=O)N3CCCC3)c(=O)c1n2C [CBK284223] | 52.7685
Cc1no[n+]([O-])c1COc1cccc(/C=C2\N=C(c3ccccc3)OC2=O)c1 [CBK263454] | 91.4307
O=C(NCCCc1ccc(F)cc1)c1cccc(-n2cnnc2)c1 [CBK282713] | 113.704
Cc1ccc(N2C(=O)c3[nH]nc(C)c3C2c2ccc(O)cc2)cc1 (stereo not shown) [CBK287915] | 47.3283
CC(=O)Nc1ccc(NC(=O)c2cnc(-c3ccc(F)cc3)c(-c3ccco3)c2)cc1 [CBK037977] | 122.107
O=C(CSc1ncccn1)Nc1cccc(Cl)c1 [CBK058217] | 95.4615
CCOc1ccccc1-c1ccccc1NC(=O)c1nc2ccccc2n(C)c1=O [CBK285855] | 112.065
COc1ccccc1-c1ncc(OCC(F)(F)F)nc1NC(=O)c1ccco1 [CBK145277] | 70.758
N#Cc1ccsc1NC(=O)CN1CCC(CNc2ccccn2)C1 (stereo not shown) [CBK306117] | 40.9068
Cc1noc(C)c1CC(=O)N1CCc2[nH]c3ccccc3c2C1 [CBK281848] | 110.447
CCCc1c(C(=O)NCC(C)(C)CN(C)C)cnn1-c1cc(Cl)cc(Cl)c1 [CBK107381] | 95.3985
O=C(/C=C/c1ccccc1)N/C(=C/c1ccccc1)C(=O)Nc1ccc2ccccc2c1 [CBK265023] | 88.8353
CC(C)c1nc2c(n1C)CCN(Cc1cc(=O)n3ccccc3n1)C2 [CBK305061] | 79.4007
O=C(NCc1ccc(-c2nc3ncccc3o2)cc1)c1ccc(F)cc1 [CBK270182] | 84.295
NC(=O)CSc1nnc(NC(=O)c2ccccc2Cl)s1 [CBK287629] | 104.783
CN(C)CCN1C(=O)C(O)=C(C(=O)c2ccc(S(=O)(=O)N3CCOCC3)cc2)C1c1ccc(Br)cc1 (stereo not shown) [CBK264693] | 96.1134
Cc1ncc(CNC(=O)C2CC2)c(-c2cn(C)c3ccccc23)n1 [CBK283366] | 90.2099

SMILES | % of control remaining
COc1cccc(Nc2cc(-c3ccc(CC(C)C)cc3)ncn2)c1 [CBK090745] | 156.397
Cc1cc(S(=O)(=O)NCc2ccccc2)ccc1OCC(=O)N1CCN(C)CC1 [CBK268274] | 82.538
O=C(Nc1ccc(N2CCCC2)c(F)c1)C1CC(=O)N(C2CC2)C1 (stereo not shown) [CBK281461] | 106.674
O=C1C=C(O)CC(CCc2ccc(F)cc2)(CCc2ccc(F)cc2)O1 [CBK008148] | 110.134
Cc1ccc(-c2ccccc2CC2(C(=O)Nc3ccc(C(N)=O)cc3)CCOCC2)c(C)c1 [CBK286422] | 104.047
CCCn1nnn(-c2cc(OCCOCC)c(Cl)cc2Cl)c1=O [CBK026016] | 78.1339
COc1cc(-c2nc3ncccc3cc2NC(=O)C(C)C)cc(OC)c1OC [CBK073661] | 94.2202
O=S(=O)(c1ccc(N2CCNCC2)cc1)n1ccc2ccc(Br)cc21 [CBK034034C] | 8.541
c1cncc(COc2cncc(N3CCCC3)n2)c1 [CBK115892] | 100.364
CCN1CCN(C(=O)c2nccnc2C(=O)O)CC1 [CBK286718] | 77.0796
Sc1nnc(-c2cccc(Br)c2)o1 [CBK288432] | 60.7368
CN(C)CCCN(Cc1ccco1)Cc1c[nH]nc1-c1cccs1 [CBK283198] | 54.3826
CC(=O)Nc1ccc(OC(=O)CSc2nc(C)cc(-c3ccccc3)n2)cc1 [CBK268754] | 116.464
CN(CCC#N)S(=O)(=O)c1ccc(Cl)c(Cl)c1 [CBK045396] | 117.343
Cn1c(=O)c2c(nc(CN3CCN(Cc4ccccc4)CC3)n2CCCc2ccccc2)n(C)c1=O [CBK269582] | 105.702
Cc1ccc(S(=O)(=O)N(C)CC(=O)Nc2ncc(C(F)(F)F)cc2Cl)cc1 [CBK266729] | 116.608
Cc1cc(C)n2nc(CC(=O)N3CCCC3c3ccccn3)nc2n1 (stereo not shown) [CBK304408] | 61.4334
CC(C)(C)NCC(O)c1ccc(O)c2c1C1CCC2CC1 (stereo not shown) [CBK013269C] | 22.9747
O=S(=O)(Cc1ccccc1)c1cc2c(N3CCNCC3)nccc2s1 [CBK200017C] | 87.1119
CCOC(NC(=O)Nc1ccc(Br)cc1)(C(F)(F)F)C(F)(F)F [CBK027208] | 97.1795
CCc1c(C)nc2c(NC(C)=O)cccc2c1SCCC(=O)O [CBK159594T] | 91.5267
O=C1Nc2cc(C(F)(F)F)ccc2N2CCCC12 (stereo not shown) [CBK288125] | 88.1535
O=C1CCCN1c1ccc(CN2CCC(O)(c3ccccc3)C2)cc1 (stereo not shown) [CBK282808] | 100.169
CCN1CCC[C@@H]1CNC(=O)c1n[nH]c2c1CCC2 [CBK174628] | 38.1242
O=C(CSc1nnc(-c2ccco2)n1Cc1ccco1)c1ccc(-c2ccccc2)cc1 [CBK267555] | 123.361

Reference: paper PMC12040169 (PLOS Biology, 2025)
